Experiment [1] deals with Connexin43 (Cx43) of rat origin, stably expressed in HEK293 cells (HEK293^Cx43+) (rat) (UniProt P08050). Put plainly: co-IP; Cx43 immunoprecipitated (goat anti-Cx43 AB0016, protein G Sepharose, RIPA buffer with 0.5% TX100, overnight at 4°C) from purified nuclear extracts of HEK293^Cx43+ cells; WB.
The target in experiment [2] is V5-tagged full-length Cx43 (Cx43^WT), transiently expressed in HEK293^Cx43− cells (rat) (UniProt P08050). The experiment can be described thus: co-IP; V5 immunoprecipitated from whole-cell extracts of HEK293^Cx43− cells transfected with V5-tagged Cx43^WT or Cx43^ΔNLS for 24 h; WB for Importin-β.
Experiment [3] concerns the target Cx43 lacking the entire C-terminal region (K258stop, Cx43^ΔCT) (rat) (UniProt P08050). Put plainly: co-IP; cells expressing Cx43^ΔCT (K258stop); interaction with Importin-β (figure S4f); antibody and extract not told.
Experiment [4] concerns the target Connexin43 (Cx43) of rat origin, stably expressed in HEK293 cells (HEK293^Cx43+) (rat) (UniProt P08050). Put plainly: co-IP; interaction of Cx43 with Importin-β after treatment of cells with 1 mM dbcAMP (promoted), 2 µM WAY-262611 (increased), 30 µM BI5521 (no change) or 5 µM Brefeldin A (decreased); extract not told (figures S5a, S6d).
Experiment [5] shares this target. Put plainly: co-IP; Cx43 immunoprecipitated (goat anti-Cx43 AB0016, RIPA buffer with 0.5% TX100) from whole-cell extracts; WB.

Sequences of proteins named here, by UniProt entry; tags and fusion partners are left off. A change or cut given only in a name is not applied to a line headed by its entry. Residues count along the entry.
UniProt P08050: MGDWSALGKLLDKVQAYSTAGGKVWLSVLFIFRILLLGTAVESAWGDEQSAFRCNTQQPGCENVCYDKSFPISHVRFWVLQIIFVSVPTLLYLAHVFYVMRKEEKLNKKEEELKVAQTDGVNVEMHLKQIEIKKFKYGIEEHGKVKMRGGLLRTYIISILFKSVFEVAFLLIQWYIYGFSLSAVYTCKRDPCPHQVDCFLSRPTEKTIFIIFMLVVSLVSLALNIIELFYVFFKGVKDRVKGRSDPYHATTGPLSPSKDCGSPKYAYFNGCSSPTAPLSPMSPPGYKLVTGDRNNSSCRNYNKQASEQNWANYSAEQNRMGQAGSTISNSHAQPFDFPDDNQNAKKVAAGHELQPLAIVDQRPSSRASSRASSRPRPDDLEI
Cx43 lacking the entire C-terminal region (K258stop, Cx43^ΔCT): residues 1-257 of P08050
UniProt P67809: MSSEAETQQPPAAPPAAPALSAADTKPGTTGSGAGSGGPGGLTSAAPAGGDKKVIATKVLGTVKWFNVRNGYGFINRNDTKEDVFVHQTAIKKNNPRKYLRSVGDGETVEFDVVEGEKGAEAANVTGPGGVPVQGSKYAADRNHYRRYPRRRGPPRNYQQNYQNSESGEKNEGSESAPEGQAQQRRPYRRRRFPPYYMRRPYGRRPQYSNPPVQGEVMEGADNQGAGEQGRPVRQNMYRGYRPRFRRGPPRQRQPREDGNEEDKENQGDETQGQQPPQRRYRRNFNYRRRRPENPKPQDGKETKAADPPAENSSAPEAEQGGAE
UniProt Q14974: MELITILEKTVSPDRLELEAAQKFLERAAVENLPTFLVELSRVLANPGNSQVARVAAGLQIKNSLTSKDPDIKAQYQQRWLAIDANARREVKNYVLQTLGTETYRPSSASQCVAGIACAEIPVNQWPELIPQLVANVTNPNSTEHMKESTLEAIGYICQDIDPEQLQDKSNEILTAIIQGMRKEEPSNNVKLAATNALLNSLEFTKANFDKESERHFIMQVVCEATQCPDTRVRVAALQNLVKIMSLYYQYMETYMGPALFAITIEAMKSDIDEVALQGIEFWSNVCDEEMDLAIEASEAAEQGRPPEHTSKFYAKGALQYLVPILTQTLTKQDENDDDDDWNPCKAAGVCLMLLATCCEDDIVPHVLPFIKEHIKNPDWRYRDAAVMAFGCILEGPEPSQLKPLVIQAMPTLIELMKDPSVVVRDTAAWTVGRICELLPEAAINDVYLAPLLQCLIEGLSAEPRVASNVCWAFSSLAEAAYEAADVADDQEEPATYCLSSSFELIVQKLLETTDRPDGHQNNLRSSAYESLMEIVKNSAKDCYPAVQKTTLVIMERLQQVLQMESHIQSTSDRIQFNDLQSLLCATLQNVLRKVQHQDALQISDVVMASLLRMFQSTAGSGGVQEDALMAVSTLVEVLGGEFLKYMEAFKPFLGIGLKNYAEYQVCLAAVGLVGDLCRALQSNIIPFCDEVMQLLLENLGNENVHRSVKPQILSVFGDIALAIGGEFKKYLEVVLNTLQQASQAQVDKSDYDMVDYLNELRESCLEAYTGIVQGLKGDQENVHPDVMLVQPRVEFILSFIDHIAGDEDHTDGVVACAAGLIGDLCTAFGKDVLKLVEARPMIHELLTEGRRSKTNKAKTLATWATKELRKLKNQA

No constants are given. Whether binding was seen depends on the method and setting. In cells and extracts the contact can be indirect. Some results given as binding are weak or reduced against the parent protein; the word gives no strength.

Take myc-YBX1 (from UniProt P67809 1-324): in experiment [1], the binding result is listed as “binds”.

In the case of “Y-box-binding protein 1 (YBX1), endogenous (from UniProt P67809 1-324)”, the binding entry in experiment [1] is reported as “binds”.

As to “Importin-β/karyopherin-β1 (from UniProt Q14974 1-876)”, the binding entry is “binds” in experiment [2]; “no binding” in experiment [3]; “binds” in experiment [1]; “binds” in experiment [4]; “binds” in experiment [5].

B1: SNW domain-containing protein 1 (SNW1) (protein, UniProt Q13573 1-536)
chain: MALTSFLPAPTQLSQDQLEAEEKARSQRSRQTSLVSSRREPPPYGYRKGWIPRLLEDFGDGGAFPEIHVAQYPLDMGRKKKMSNALAIQVDSEGKIKYDAIARQGQSKDKVIYSKYTDLVPKEVMNADDPDLQRPDEEAIKEITEKTRVALEKSVSQKVAAAMPVRAADKLAPAQYIRYTPSQQGVAFNSGAKQRVIRMVEMQKDPMEPPRFKINKKIPRGPPSPPAPVMHSPSRKMTVKEQQEWKIPPCISNWKNAKGYTIPLDKRLAADGRGLQTVHINENFAKLAEALYIADRKAREAVEMRAQVERKMAQKEKEKHEEKLREMAQKARERRAGIKTHVEKEDGEARERDEIRHDRRKERQHDRNLSRAAPDKRSKLQRNENRDISEVIALGVPNPRTSNEVQYDQRLFNQSKGMDSGFAGGEDEIYNVYDQAWRGGKDMAQSIYRPSKNLDKDMYGDDLEARIKTNRFVPDKEFSGSDRRQRGREGPVQFEEDPFGLDKFLEEAKQHGGSKRPSDSSRPKEHEHEGKKRRKE
On to B1, for which the binding result in experiment [1] is recorded as “binds”.

The values are drawn from PMC10645070.
